In article PMC4336329 (PLoS ONE, 2015):
Out of some 310,000 compounds screened, about 14,000 (4.5%) showed an effect of 50% or more. Effects have a minus sign here. The list shows a part of the results.
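Further: peak tail current of the secondary pulse compared with the same well before compound.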

These compounds were tested against human ether-à-go-go-related gene (hERG) potassium channel (human, UniProt Q12809) (assay: primary screen, population patch clamp on CHO cells stably expressing hERG).
Sequence of human ether-à-go-go-related gene (hERG) potassium channel (Q12809 whole entry, looked up): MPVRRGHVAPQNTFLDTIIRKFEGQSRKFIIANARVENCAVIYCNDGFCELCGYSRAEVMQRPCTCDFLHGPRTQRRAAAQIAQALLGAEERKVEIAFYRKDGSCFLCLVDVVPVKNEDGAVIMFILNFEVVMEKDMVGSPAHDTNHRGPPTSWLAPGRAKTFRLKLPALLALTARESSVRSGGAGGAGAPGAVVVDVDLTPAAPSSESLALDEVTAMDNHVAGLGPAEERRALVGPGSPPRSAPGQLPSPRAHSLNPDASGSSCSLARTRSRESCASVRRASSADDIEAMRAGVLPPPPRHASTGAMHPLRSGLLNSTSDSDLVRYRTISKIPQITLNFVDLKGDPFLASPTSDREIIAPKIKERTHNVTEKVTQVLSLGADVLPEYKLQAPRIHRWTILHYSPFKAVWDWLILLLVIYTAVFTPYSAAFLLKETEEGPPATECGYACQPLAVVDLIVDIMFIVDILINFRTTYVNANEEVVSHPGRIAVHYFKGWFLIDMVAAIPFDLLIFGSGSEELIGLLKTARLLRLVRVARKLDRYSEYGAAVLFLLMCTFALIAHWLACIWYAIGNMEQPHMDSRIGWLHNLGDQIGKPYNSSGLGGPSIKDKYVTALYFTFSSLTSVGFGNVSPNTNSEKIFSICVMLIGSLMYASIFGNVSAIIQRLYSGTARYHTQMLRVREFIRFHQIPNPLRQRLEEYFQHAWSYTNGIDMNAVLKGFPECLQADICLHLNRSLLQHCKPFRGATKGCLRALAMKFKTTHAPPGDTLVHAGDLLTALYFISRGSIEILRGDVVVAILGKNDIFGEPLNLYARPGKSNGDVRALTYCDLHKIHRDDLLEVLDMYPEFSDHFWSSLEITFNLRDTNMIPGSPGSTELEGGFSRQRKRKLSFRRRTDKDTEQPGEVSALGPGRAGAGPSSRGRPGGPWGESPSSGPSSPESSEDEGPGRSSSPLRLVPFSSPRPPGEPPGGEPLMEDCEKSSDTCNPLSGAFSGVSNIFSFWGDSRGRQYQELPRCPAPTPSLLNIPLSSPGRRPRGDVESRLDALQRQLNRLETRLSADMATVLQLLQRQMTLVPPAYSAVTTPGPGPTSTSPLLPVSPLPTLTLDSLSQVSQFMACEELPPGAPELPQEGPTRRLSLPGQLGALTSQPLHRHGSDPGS
With O=C(C1CCN(S(=O)(=O)c2ccc(Br)s2)CC1)N1CCN(c2ccccc2)CC1 the “hERG current change (%, negative = inhibition) at 10uM” value was -10.5%. For CCCCCC(=O)N1CCCCC1, the “hERG current change (%, negative = inhibition) at 10uM” value was 4.42%. In the case of COc1ccc(NC(=O)C2CCCN(S(C)(=O)=O)C2)c(OC)c1 (stereo not shown), the “hERG current change (%, negative = inhibition) at 10uM” value is reported as 18.3%. In the case of CCN(CC)CCCN1C(=O)C(O)=C(C(=O)c2sc(C)nc2C)C1c1ccco1 (stereo not shown), the “hERG current change (%, negative = inhibition) at 10uM” value is reported as -0.605%. For COc1ccccc1OCCNC(=O)c1ccc(C)c(S(=O)(=O)N2CCOCC2)c1, the “hERG current change (%, negative = inhibition) at 10uM” value was -16.6%. In the case of Cc1ccc2c(CNCc3ccccc3)cc(=O)oc2c1, the “hERG current change (%, negative = inhibition) at 10uM” value is reported as 0.879%. CC(=O)c1c(C)nc2ccc(C)cc2c1-c1ccccc1 was tested, and the “hERG current change (%, negative = inhibition) at 10uM” value was -9.78%. In the case of COc1ccc(-n2c(CCc3ccccc3)nnc2SCC(=O)NCc2ccccc2)cc1, the “hERG current change (%, negative = inhibition) at 10uM” value is reported as -47.3%. For COc1cc(/C=N/N2CCOCC2)ccc1OC(=O)c1ccco1, the “hERG current change (%, negative = inhibition) at 10uM” value was 40%. In the case of CC(Nc1nc(N2CCOCC2)nc2ccccc12)c1ccccc1 (stereo not shown), the “hERG current change (%, negative = inhibition) at 10uM” value is reported as -73.8%. In the case of COc1ccc(C(=O)N2CCN(Cc3ccc(OC)c(OC)c3)CC2)cc1.O=C(O)C(=O)O, the “hERG current change (%, negative = inhibition) at 10uM” value is reported as 0.702%. In the case of O=S(=O)(c1ccc(F)c(F)c1)N1CCN(S(=O)(=O)c2cccs2)CC1, the “hERG current change (%, negative = inhibition) at 10uM” value is reported as 1.29%. In the case of COc1cccc(NC(=O)c2ccc3nsnc3c2)c1, the “hERG current change (%, negative = inhibition) at 10uM” value is reported as 5.78%. With NC(=O)NCC(c1ccccc1)C1CCCCC1 (stereo not shown) the “hERG current change (%, negative = inhibition) at 10uM” value was 19.5%. For O=C(c1ccccc1NS(=O)(=O)c1cccs1)N1CCOCC1, the “hERG current change (%, negative = inhibition) at 10uM” value was 15.3%. For CCOC(=O)c1ccc(Cn2cnc3ccccc3c2=O)cc1, the “hERG current change (%, negative = inhibition) at 10uM” value was -9.65%. In the case of Cc1ccnc(NC(c2ccncc2)c2c(C)[nH]c3ccccc23)c1 (stereo not shown), the “hERG current change (%, negative = inhibition) at 10uM” value is reported as -7.02%. With c1ccc(CCNc2nc3ccccc3n3nnnc23)cc1 the “hERG current change (%, negative = inhibition) at 10uM” value was 1.71%. In the case of O=C(CN1CCN(c2ccccc2)CC1)Nc1scc2c1c(=O)oc1ccccc12, the “hERG current change (%, negative = inhibition) at 10uM” value is reported as 16.1%. CC(C)N(C)C1CCN(C(=O)Nc2ccc(Cl)c(Cl)c2)CC1 was tested, and the “hERG current change (%, negative = inhibition) at 10uM” value was -40.9%. For C=CCc1c(OC(C)=O)c2ccccc2n(C)c1=O, the “hERG current change (%, negative = inhibition) at 10uM” value was -4.29%. For COc1ccc(C)cc1N(CC(=O)NCCSCc1ccco1)S(=O)(=O)c1ccc(C)cc1, the “hERG current change (%, negative = inhibition) at 10uM” value was -11.3%. With Nc1cncc(C(=O)O)c1 [24817409] the “hERG current change (%, negative = inhibition) at 10uM” value was 15.7%. COc1cc(OC)c(S(=O)(=O)Nc2ccc(C(=O)O)cc2)cc1S(=O)(=O)Nc1ccc(C(=O)O)cc1 was tested, and the “hERG current change (%, negative = inhibition) at 10uM” value was 10.7%. In the case of Cc1ccc(-n2nc(C(=O)N3CCN(C)CC3)c3c4ccccc4n(C)c3c2=O)cc1, the “hERG current change (%, negative = inhibition) at 10uM” value is reported as 5.61%.
